Results on 29 molecules are retold here after the supplement of paper PMC12632987.

To fix the notation:
B1: GBRAP_96_7100 (protein)
chain: MLEEARRLVRELLEALDTDEERARELARELLEFPVEVIVEALVEEVKTPEEAYKLTRVLLSLGDPKAEEVALEFAEESDGERSKAVIEAMEEYEKEREAA
B2: GBRAP_128_3486 (protein)
chain: STEEVVAKTKELMEKIKNSSLEEVEEIARELVELLGQADPESREAATEVILEKLKELSAEKLEILADVLRERQPELDPFGAEQAAEIQVEALNEAEEKEE
B3: GBRAP_39_5693 (protein)
chain: EEDEENEDHVSYLQALAAKRLYETGISLEEATKEAKKILEEEAKRNPELKELLEELIKLAEEKGDEAKEVLIGVAVLIEEGEPKEEIKEHIEKAIKYFKK
B4: GBRAP_78_6583 (protein)
chain: ELEKLFDEIYAKLDEAHRLARQLPPDVRNEVLAELTEASSYLLEAEEEGNKLESLKEAIAALDEALAIARAADDPVAPALAAELDAAKALAEEALKLVKK
B5: GBRAP_52_6142 (protein)
chain: MREELRKIAEEILELVKEGKLEEAKKLADELVKTKNDEELKLFADEFAEVVRELRPEELDYAAKALEIIVDSMEKAGVDEKIISYVLGKGTRAMYEVELR
B6: GBRAP_52_6307 (protein)
chain: MEERMEALARELLALVRAGDLEGARELARELVETLSEEELLALAEALAKLAATADEEELDALAELLDILEDEMEKAGVDEGVIAEILGIITTALYEAELA
B7: GBRAP_184_5140 (protein)
chain: KTLRESIDAKTVEEAIKKAKEAFEKAKKENAKLVLFVFADGLSVEEVEKLMKELKKLIEEYGLKDATVILVVDADEEEADKIIEIADKYGIRVVVALNEE
B8: GBRAP_128_3286 (protein)
chain: APEELLKKVEELIEEIENSDEEEARKLAEELAELLGSVSVEEAEAIAEIIEEKLPELSKEKLEILAEVLDKARPKMTPEKAAIAADIASTALLEAEELEE
B9: GBRAP_74_6522 (protein)
chain: MDALLAALEAAAAAGDVAALVALLREIIATGDLATIERAARIAVAFVEAHLDALTPEELAALADALAELADRLMELGGDPATINAVAAAAVALEEALAAR
B10: GBRAP_26_5429 (protein)
chain: MEEIFKELEEKMEEAADKLLDPEKAAGLKAEISTEILEVEEKVEEENLSIEEIKELLEKMIERIVEAARELGVDEETLKKLREEFEKYAEEALKKLEKER
B11: GBRAP_117_2590 (protein)
chain: SALEKEIAEKIKETVEEFKKAYEKMKTLSPEEKKKLEEEMKEKIYKVLKEALEKLSLEKVYEFIEEATKDLNAEEYFLFESLLEEALAEIKEEEKKKEEE
B12: GBRAP_128_3370 (protein)
chain: VDEAALAEVAAMARAMAKADVAEARELARALVRHLGTLSPEEREAAVEILKKELPKLSAEKLDVLADVIRELRPTLDPETAALLAELEVEALNEREEKEE
B13: GBRAP_26_5421 (protein)
chain: LEEKFREMADEMDEAFDELLDPELAAAAKTEFYTLLEEAEEEIEKNKNDLEKQKAILEKMLKEFEKALKELGVSEENRAKLMKKLKEGMEKILEYLEKKL
B14: GBRAP_160_4123 (protein)
chain: KEKKRKTLLDSAKDVEETLKIIEDLSPEEAGTLAIVTLGQILLDNDELDDEFPEIEKLADEAIEKLRETAKTDPEKLKELSKELLEEIRELLLKKAEELK
B15: GBRAP_39_5660 (protein)
chain: DEKEEAELLKSYYEALAVKYQVEKGISDEELHEEGIKLLKEIAEEHPEIKEAVEELIELMKEGDDEFKEAAFGIALLAKEGTPIEEIKKRIEELIKLYKS
B16: GBRAP_74_6551 (protein)
chain: MEEKLKAAEKALEEGDYLTAAKILKEILEEGPDEETIKRIQKLIVRLAERLDELDRAAVDALADAVAALFTNVPDELLSDETFRAAARILARAVELEAAE
B17: GBRAP_128_3297 (protein)
chain: SAEALRARYRERLLALRELSPEELHAATLALVAEAAALGLEAVEILAEELEALLPEFSVEQLEAIADALREAAATADPETRAILADAENDALLEAEEKEE
B18: GBRAP_39_5682 (protein)
chain: EEEEELELEVSYLEAIAAKYLYDTGISFEEALAEAKKVLKEYAKKNPELKELIEELIKLADEKGEEAQLVLIGIAVLIKEGTPKEEIKENIEKAIKYFKS
B19: GBRAP_11_2864 (protein)
chain: MKEKLKEAAKLAKEAVKVLDELLKKGVDDEELRKKLEELLKELEELAKKYLDESEVKLVEIAVENFEKALKDPENAEKYIKNALAALRVFEGQLLLLIDE
B20: GBRAP_125_3153 (protein)
chain: SKEEAVEALALIARRLGFDEGLVEEIARLAEKHSIKNTLYAIALAEGNEELADLVLKLTEEEVEEVVKEAAKYLEENPNITPEELKKKLLELAKKALKEK
B21: GBRAP_160_4285 (protein)
chain: EEEKKKLIEEVNELFEEAKEEMKGQTRAERVTVVRVTGGEVAMALWENPIATEELVDEALKIMDDLAATIAANPDLTDAEIEALLNEAREKIKKAIEESS
B22: GBRAP_52_5917 (protein)
chain: MEEEIKKIAEKILEAAIAGKKEEMKKLIKEAVETLNTEELAELVKKLAELTIERGPEYYDVFAEIMDILEDEVEEAGKNVEEIDYAIAEGFGRLYKAEQA
B23: GBRAP_184_5327 (protein)
chain: KTLEVHIPNASLEEIIKEVEKAAKEAAAAGADLLISIDAEGYSDEELVELLEAIGEIAKKEGVKNVTVGLDKAVDEETADKLIEVADKYGIRLTLALKDE
B24: GBRAP_128_3245 (protein)
chain: SQEELLAKALELIDRIVEVDVEEAAKLTAELLELLKQLDAESREKVADYLEERLKELSAEKLEAVADTIRANRGKLDPETAALVAGVEIDALELAEEKKE
B25: GBRAP_43_5783 (protein)
chain: SEELVDGAIDFALLMLEEPEVPEEQKVKAAVAAIELAADEGYLDKEKIMALVDAAAASLSAEELKKLAERLKEIAEKYPEHKEVLEEARAKVEAAIKAKE
B26: GBRAP_80_6753 (protein)
chain: GEAALAAALAELEELDPELGAALRAVLERALAAGVPVATVTRLVEALVELAKLDLERARELGRRFIAELEAALAAGDLEAATAVLIDAESDALLEVEELE
B27: GBRAP_52_6265 (protein)
chain: MREELRAQVEEIFNLVKEGKLEEARELARKLVESLNEEELELFIKEFAEYAKTVKKEEIPYVEKATEIIAEEMERAGVPEELVSLFEAEAYGAIYEREQK
B28: GBRAP_160_4269 (protein)
chain: KKTAEELAADVAEDRDEILSLVDELSAEEIRTLAVTELGSHLMEAIDEGVITDAEEDELAAIVDALEADLAAAADASPEELRAIITRYYDAAIALLKKAA
B29: GBRAP_52_6251 (protein)
chain: MAEELRAKAKEIVELVKEGKLEEARKLAREIARTYNEEEIEAFIDEFAKLAEESRLEDIEAVWEAAEIIAEALEEEGWDEVLVDYALARTAAALVKVEEK

In all, about 4,500 sequences were measured (“median log2 fold change of GCK-ALFA target abundance (FLAG IP / Myc IP barcode read proportion)”: median about 0.078, lowest 2% from about -0.6 on). This is one part of the list.

Chain of GABARAP, O95166 (O95166 whole entry, the tested form may be a part): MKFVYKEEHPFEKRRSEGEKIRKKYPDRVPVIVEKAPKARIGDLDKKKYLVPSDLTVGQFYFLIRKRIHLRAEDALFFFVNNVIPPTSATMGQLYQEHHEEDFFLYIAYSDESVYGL

The experiment has as its target GABARAP, O95166. Description: median log2 fold change of GCK-ALFA target abundance (FLAG IP / Myc IP barcode read proportion) (log2 ratio); each designed protein is fused to an ALFA-tag nanobody in HEK293 cells to bring the named protein to FLAG-tagged glucokinase (GCK); Myc marks an untargeted standard; higher = target protein stabilised (more abundant). Particulars: target protein: 3xFLAG-MCP-GCK-ALFA reporter; HEK293 landing pad (RPLP). The gist of the method: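 The readout is target abundance, the per-binder median log2 ratio of FLAG to Myc barcode read proportions. It came from HEK293 landing-pad cells carrying a recombined ALFA-nanobody-fused binder library, induced with 2 μg mL^−1 doxycycline and transfected with a plasmid for a FLAG-tagged target and a Myc-tagged standard. After 48 h, lysates were immunoprecipitated with anti-FLAG and anti-Myc, and circular RNA barcodes were reverse transcribed, amplified and sequenced. Each barcode needed a proportion of at least 10^−7 in both replicates and each binder at least 3 barcodes per replicate, a pseudocount of 10^−6 was added, and the replicates were pooled.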
Consider B1, for which the “median log2 fold change” value was found to be 0.218.

Regarding B2, the “median log2 fold change” value is 0.224.

Regarding B3, the “median log2 fold change” value amounted to 0.24.

Consider B4, for which the “median log2 fold change” value was found to be 0.0104.

B5: the “median log2 fold change” value is 0.151.

Consider B6, for which the “median log2 fold change” value is -0.37.

With B7, the “median log2 fold change” value worked out at 0.144.

For B8, the “median log2 fold change” value was determined as 0.00587.

In the case of B9, the “median log2 fold change” value stood at 0.209.

In the case of B10, the “median log2 fold change” value was determined as 0.241.

Regarding B11, the “median log2 fold change” value stood at 0.0424.

For B12, the “median log2 fold change” value came to 0.37.

Take B13: the “median log2 fold change” value worked out at 0.347.

For B14, the “median log2 fold change” value came out at 0.128.

Turning to B15, the “median log2 fold change” value was -0.0694.

With B16, the “median log2 fold change” value was -0.113.

As for B17, the “median log2 fold change” value was found to be 0.0146.

For B18, the “median log2 fold change” value turned out to be 0.0329.

For the molecule B19, the “median log2 fold change” value was 0.0563.

As for B20, the “median log2 fold change” value is -0.369.

With B21, the “median log2 fold change” value is -0.0523.

As to B22, the “median log2 fold change” value was found to be 0.144.

On to B23, for which the “median log2 fold change” value was -0.113.

As to B24, the “median log2 fold change” value came to 0.182.

Take B25: the “median log2 fold change” value is 0.364.

Consider B26, for which the “median log2 fold change” value was found to be 0.175.

Regarding B27, the “median log2 fold change” value is 0.0899.

For the molecule B28, the “median log2 fold change” value turned out to be 0.199.

For the molecule B29, the “median log2 fold change” value is -0.554.
